Measured values published in publication PMC13083723 (Patterns, 2026).
Among all 5,400 compounds or so, about 190 (3.5%) showed an effect of 50% or more. The list shows a part of the results. Positions of bridges follow the written chain, without caps; N, C: chain ends. Non-standard residues stand in square brackets, D forms with d. Residues, ends and D or L forms follow the SMILES beside them. *: point of attachment. Heptanoyl(5-Me) = CCC(C)CCCC(=O)*; Dab = NCC[C@H](N)C(=O)O

These molecules were tested on Vero-E6 (assay: primary screen, phospholipidosis by LipidTOX staining; higher = more effect of the substance). Conditions: 10 µM.
How it was run: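 Single-concentration screen at 10 μM, with DMSO 0.1 v/v % and amiodarone 10 μM as controls. Read-out is LipidTOX Red phospholipid staining, which tolerates aldehyde fixation, in Vero-E6 cells.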

Point of comparison: `O=C1CC2(CCCC2)CC(=O)N1CCNCC1COc2ccccc2O1` (centres unmarked), result_ITMP -1.2%. Against it:
- O=C(NC(O)C(Cl)(Cl)Cl)NC(O)C(Cl)(Cl)Cl (centres unmarked) — lower, -5%
- CC(=O)N1CCN(CCOc2ccc(C3CCN(C4=Nn5c(nnc5C(F)(F)F)CC4)CC3)cc2)CC1 — lower, -1.31%
- O=C1N=C(N2CCOCC2)CN1c1ccc(Cl)cc1 — higher, -1.04%
- C=CC(=O)Nc1ccc2ncnc(Nc3ccc(OCc4cccc(F)c4)c(Cl)c3)c2c1 — higher, 5.68%
- CC(=O)NC1CCSC1=O (centres unmarked) — lower, -6.65%
- Cc1cc(-c2cc(O)ccc2Cl)cc2nnc(Nc3ccc(OCCN4CCCC4)cc3)nc12 — lower, -2.38%
- CC(Oc1c(Cl)cccc1Cl)C1=NCCN1 (centres unmarked) — higher, 3.59%
- C[N+](C)(CCOc1ccccc1)Cc1ccccc1 — higher, 5.42%
- O=C1NNc2nc(CN3Cc4ccccc4C3)nc3cccc1c23 — higher, 0.43%
- CC(C)=CCC/C(C)=C/CC/C(C)=C/CC/C(C)=C/CC1=C(C)C(=O)c2ccccc2C1=O — lower, -5.99%
- Cc1cc(C)cc(NC(=O)Nc2ccc(OS(N)(=O)=O)cc2)c1 — lower, -9.64%
- O=c1cccc2n1C[C@H]1C[C@@H]2CN(CCN2C[C@@H]3C[C@H](C2)c2cccc(=O)n2C3)C1 — lower, -6.09%
- C[C@H](C[C@H](N)C(=O)O)C(=O)O — higher, 1.7%
- COc1ccc(/C=C\c2cc(OC)c(OC)c(OC)c2)cc1OP(=O)([O-])[O-] — higher, 11.6%
- Cc1cccc(-c2n[nH]cc2-c2ccc3ncccc3n2)n1 — lower, -5.09%
- CCOC(=O)[C@H](CCc1ccccc1)N[C@@H](C)C(=O)N1CCC[C@H]1C(=O)O — lower, -3.09%
- CCCC[N+]1(C)[C@@H]2C[C@@H](OC(=O)[C@H](CO)c3ccccc3)C[C@H]1[C@@H]1O[C@@H]12 (some centres unmarked) — lower, -5.86%
- Cc1cc(Cn2cnc3c2C[C@@H](C(=O)O)N(C(=O)C(c2ccccc2)c2ccccc2)C3)ccc1N(C)C — lower, -1.55%
- CC(=O)N[C@@H](Cc1ccccc1)C(=O)O — higher, 2.94%
- Cc1nc2ccc(CN(C)c3ccc(C(=O)N[C@@H](CCC(=O)O)C(=O)O)s3)cc2c(=O)[nH]1 — lower, -6.73%
- CCOc1ccc(-n2c(C(C)N(Cc3cccnc3)C(=O)Cc3ccc(OC(F)(F)F)cc3)nc3ncccc3c2=O)cc1 (racemic) — lower, -1.28%
- CNC(=O)[C@H](Cc1ccccc1)NC(=O)[C@H](CC(C)C)[C@H](CSc1cccs1)C(=O)NO — higher, 0.06%
- CNC(=O)Oc1ccccc1OC(C)C — higher, -0.41%
- Cn1nnnc1SCC1=C(C(=O)O)N2C(=O)[C@@H](NC(=O)[C@H](OC=O)c3ccccc3)[C@H]2SC1 — lower, -2.11%
- Oc1ccc2c3c1OC1C(O)CCC4(O)C(C2)N(CC2CCC2)CCC314 (centres unmarked) — higher, 1.96%
- CCCCCCCCCCCCCCCCCCCCCCCCC(=O)O — lower, -6.72%
- NC(=S)N/N=C/c1ncccc1N — higher, -1%
- CCOC(=O)C1=CCCC[C@H]1S(=O)(=O)Nc1ccc(F)cc1Cl — lower, -5.48%
- COC(=O)C1=C(C)N(C)C(C)=C(C(=O)OC)C1c1ccc(C(F)(F)F)cc1 — lower, -7.11%
- O=C1N[C@@H]2[C@@H](O)[C@@H](O)[C@H](O)[C@@H](CO)N2C1=O — lower, -4.33%
- C[C@]12COC(=O)C[C@@H]1CC[C@@H]1[C@@H]2CC[C@@]2(C)[C@H]1CC[C@]2(C)O — higher, 0.61%
- CC(=O)Nc1ccc(O)cc1 — higher, 0.69%
- NC(=O)CS(=O)C(c1ccccc1)c1ccccc1 (centres unmarked) — higher, -1.1%
- COc1ccc(Cc2nc(=O)c3c(C)nc([C@@H](CCCc4ccccc4)[C@@H](C)O)n3[nH]2)cc1OC — higher, 0.34%
- O=P1(N(CCCl)CCCl)NCCCO1 (centres unmarked) — lower, -2.34%
- Cc1ccc(NC2=CC(=O)c3sc(C)nc3C2=O)cc1 — lower, -4.12%
- c1ccc2c(c1)sc1ccccc12 — lower, -4.35%
- NCCCC(N)C(=O)O (centres unmarked) — higher, 4.66%
- CCCN[C@@H]1CCc2c(OC)cccc2[C@@H]1C — lower, -3.11%
- Nc1ccc(S(=O)(=O)[O-])cc1 — lower, -6.57%
- Cc1cc(-n2c(=O)[nH]c(=O)n(C)c2=O)ccc1Oc1ccc(SC(F)(F)F)cc1 — higher, 2.17%
- Cc1ccccc1N1C(=O)c2cc(S(N)(=O)=O)c(Cl)cc2NC1C (centres unmarked) — lower, -2.71%
- O=C(O)CNC(=O)c1ccccc1I — lower, -3.23%
- CC1CCC2C(C)(C)C3CC12CCC3(C)O (centres unmarked) — lower, -2.96%
- COc1cc(C)[nH]c(=O)c1CNC(=O)c1c(C)n([C@H](C)C2CCOCC2)c2ccccc12 — lower, -1.74%
- CC(C)COC(=O)c1ccc(N)cc1 — lower, -9.48%
- O=C1N(c2ccccc2)c2ccccc2C1(Cc1ccncc1)Cc1ccncc1 — higher, -1.08%
- O=C(NS(=O)(=O)c1ccc(Br)s1)c1ccc(Cl)cc1Cl — lower, -2.71%
- CN(C)CC[C@@H](c1ccc(Cl)cc1)c1ccccn1 [R4A_0004036_001 / SPE_K39462424] — higher, 22.6%
- CCc1c(C(=O)Nc2cc(S(=O)(=O)N(CC)CC)ccc2O)[nH]c(C)c1C(C)=O — higher, 21.9%
- C[C@@H]1CC2C3CCC4=CC(=O)C=C[C@]4(C)[C@@]3(F)[C@@H](O)C[C@]2(C)[C@H]1C(=O)CO (some centres unmarked) — higher, 6.16%
- OCCOCCN1CCN(C(c2ccccc2)c2ccc(Cl)cc2)CC1 (centres unmarked) — higher, 14.9%
- C[C@@H](O[C@H]1OCCN(Cc2nn[nH]c2CN(C)C)[C@H]1c1ccc(F)cc1)c1cc(C(F)(F)F)cc(C(F)(F)F)c1 — higher, 71.2%
- COc1ccc(CNC(=O)Nc2ncc([N+](=O)[O-])s2)cc1 — lower, -1.3%
- Cc1cc(CCCOc2c(C)cc(-c3noc(C(F)(F)F)n3)cc2C)on1 — lower, -11.7%
- C=CC1=C(C(=O)O)N2C(=O)[C@@H](NC(=O)/C(=N\OCC(=O)O)c3csc(N)n3)[C@H]2SC1 — lower, -2.73%
- CCS(=O)(=O)N(Cc1cccnc1)c1cccc(-c2ccc(C#N)cc2)c1 — lower, -1.54%
- CCS(=O)c1nc(-c2cccc(OCc3ccccc3)c2)cc(C(F)(F)F)n1 (centres unmarked) — higher, -1.04%
- CN1C(=O)CCS(=O)(=O)C1c1ccc(Cl)cc1 (centres unmarked) — higher, 2.2%
- CC1(S(=O)(=O)[O-])CC(=O)c2ccccc2C1=O (centres unmarked) — higher, -0.84%
- C/C(=C\C(N)C(=O)O)CP(=O)(O)O (centres unmarked) — lower, -1.95%
- CCC(C)CCCC(=O)N[C@@H](CCN)C(=O)N[C@H](C(=O)N[C@@H](CCN)C(=O)N[C@H]1CCNC(=O)[C@H]([C@@H](C)O)NC(=O)[C@H](CCN)NC(=O)[C@H](CCN)NC(=O)[C@H](CC(C)C)NC(=O)[C@@H](CC(C)C)NC(=O)[C@H](CCN)NC1=O)[C@@H](C)O (stereo partly drawn) [R4A_0005175_001 / SPE_A18924964] ({Heptanoyl(5-Me)}-[Dab]T[Dab][Dab][Dab][dL]L[Dab][Dab]T; lactam 4-C) — lower, -1.3%
- Nc1ccc(-c2nc3ccc(-c4nc5ccc(N)cc5[nH]4)cc3[nH]2)cc1 — lower, -2.7%
- CS(=O)(=O)CCNCc1ccc(-c2ccc3ncnc(Nc4ccc(OCc5cccc(F)c5)c(Cl)c4)c3c2)o1 — higher, 91.4%
- O=C(Nc1ccc(O)cc1)c1ccccc1O — higher, 18.9%
- C=CC(=O)Nc1cccc(Nc2nc(Nc3ccc(N4CCN(C(C)=O)CC4)cc3OC)ncc2C(F)(F)F)c1 — higher, 32.5%
- Oc1ccc(Cl)c2cccnc12 — higher, 1.97%
- Nc1c(Br)cc(Br)cc1CN[C@H]1CC[C@H](O)CC1 — higher, 2.43%
- CC1Nc2ccc(Cl)cc2S(=O)(=O)N1 (centres unmarked) — higher, -0.33%
- CCC(=O)c1ccc(O)cc1 — lower, -7.42%
- O=C([O-])C(=O)[O-].[NH-][C@@H]1CCCC[C@H]1[NH-].[Pt+4] — higher, 22.9%
- COC(=O)c1sccc1S(=O)(=O)Nc1ccc(Nc2ccccc2)cc1OC — higher, 2.22%
- CC(C)(Sc1cc(C(C)(C)C)c(O)c(C(C)(C)C)c1)Sc1cc(C(C)(C)C)c(O)c(C(C)(C)C)c1 — lower, -4.21%
- CCN1C(=O)NC(c2ccccc2)C1=O (centres unmarked) — lower, -4.16%
- CN1CCCC(CC2c3ccccc3Sc3ccccc32)C1 (centres unmarked) — higher, 74.2%
- COc1ccccc1N1CCN(CC(O)COc2cccc3ccccc23)CC1 (centres unmarked) — higher, 20%
- CN1CCC(=C2c3ccccc3CC(=O)c3sccc32)CC1 — higher, 29%
- O=C(O)CC[C@H]1CC[C@@](c2cc(F)ccc2F)(S(=O)(=O)c2ccc(Cl)cc2)CC1 — lower, -3.26%
- COc1ccc2c(c1)N(C[C@H](C)CN(C)C)c1ccccc1S2 — higher, 53%
- C/C=C1\NC(=O)[C@H]2CSSCC/C=C/[C@H](CC(=O)N[C@H](C(C)C)C(=O)N2)OC(=O)[C@H](C(C)C)NC1=O — lower, -1.23%
- COC(=O)c1ccccc1O — lower, -1.83%
- Cc1ncc(OC[C@@]2(c3cccc(F)c3)C[C@H]2C(=O)Nc2ccc(F)cn2)c(C)n1 — higher, -0.98%
- CCCCCCCCCCCCOS(=O)(=O)O — higher, 1.59%
- CCc1cc2c(s1)-n1c(C)nnc1CN=C2c1ccccc1Cl — lower, -1.29%
- COc1cc(OC)c(C(=O)CCCN2CCCC2)c(OC)c1 — higher, 3.55%
- CC(C)Oc1ccc(Cc2ccc(NC3=NCCN3)cc2)cc1 — higher, 42.3%
- NC(=O)CN1Cc2ccccc2OC1=O — lower, -4.62%
- N#CC(c1ccc(Cl)cc1)c1c(Cl)cc(-n2ncc(=O)[nH]c2=O)cc1Cl (centres unmarked) — higher, 8.2%
- OCc1cc([C@@H](O)CNCCCCCCOCCOCc2c(Cl)cccc2Cl)ccc1O — higher, 2.47%
- O=c1ccc2ccc(O)c(O)c2o1 — lower, -5.48%
- Cc1ccc(NC(=O)C(C)C)cc1C1CCN(Cc2ccc(Oc3ccc(F)c(F)c3)cc2)CC1 — higher, 22.4%
